Target: Megathura crenulata (keyhole limpet) hemocyanin, native (Megathura crenulata) (UniProt Q10583)
Assay: negative-stain transmission electron microscopy; hemocyanins 0.6 mg/ml on parlodion-coated copper grids, 1-2% uranyl acetate; didecamers, decamers and dissociated structures counted in about 20 images

stoichiometry N: 20
Substance: Megathura crenulata (keyhole limpet) hemocyanin, native, Q10583 17-3414; Q10584 20-3421

Reference: publication PMC6926458
